Results published in the supplement of paper PMC10126150.
Values marked as one replicate rest on one cluster of the flow cell; about a third of the high ones do not repeat.

System: ATP
Test: switch fluorescence ratio, 500 uM ATP over buffer (Cy3 cluster intensity, sum of 5 cycles each) (fold (ratio)); higher = stronger signal-on switching upon ATP binding; sequences stand for … in TCGTCGGCAGCGTCAGATGTGTATAAGAGACAGTTTTTTTTTTTTTTTTTTTTTTTTT…TC
Conditions: aptamer strand: ATP DNA aptamer (quencher-CACCTGGGGGAGTATTGCGGAGGAAGG + anchor), 100 nM annealed; ATP concentration: 500 uM; one replicate
Procedure, shortened: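 Five buffer/ATP imaging cycles were run on Cy3-labelled switching-strand clusters on a modified Illumina MiSeq flow-cell, with NaOH stripping and re-annealing between cycles. In each cycle, clusters annealed to 100 nM quencher-labelled ATP aptamer were imaged in selection buffer, then after 15 min with 500 uM ATP at 22 °C. Per cluster, the fluorescence ratio is summed target-cycle over summed buffer-cycle Cy3 intensity, averaged per switch-domain sequence. Only clusters within 100-1000 RFU were kept.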
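Also: ATP exposure 15 min at 22 °C before imaging.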

Sequence	switch fluorescence ratio
ATCGGTAG	1.02
GAACATTGGG	1
GATGAAGGGG	1.06
ATGTGTAGAT	1.03
AATCGTTGGA	0.999
CTCAGTCGCT	0.99
TTCAGAGTAA	0.994
TGATTCGTCG	1
GCAGAAATTT	0.973
GCGAGTCTGG	0.979
ACTAGGAATA	1.03
ACACGGTCGA	1.03
TGTATTAAGC	0.982
GATTGCCCCA	1.03
CACGTAACCA	1.32
CGCGGTAGGA	1.01
GCGTGATCCT	1.02
GACAATAAAT	1.06
GCCTCGCTCG	0.993
TCGGTCGCCC	0.998
TACAGATCTT	0.968
AACCTGCTTA	1.03
ACGTTGGAGG	1.05
CAAAATTAAT	0.987
ACGTTGACGT	1.03
GCGGTCGGGA	1.02

Sequence	switch fluorescence ratio
GGTTTTTCAG	0.942
AGGCGGCTGC	0.961
GGTGTTAGTT	0.965
TTGACGACC	1.21
ATGTCAAGTG	0.976
GAAAAAGAGT	0.97
TACCCTTGGA	1.02
TTACCTATTG	0.995
CATTAAAAGT	0.971
CAATGTAGAG	0.992
AGTCCTAAGA	0.986
ATGGGAAGGA	1.03
AATGTTAATC	1.02
CACTCGACTT	1.02
TGATCAATTT	0.909
ACGTCTAAAA	1.13
TTCATTCAAT	1.02
TGGGCTATGG	1.03
TGGGCTTCTA	1.03
CACAAAGAGT	1.06
GGGCTTCGAC	0.997
TACGGCTGAG	1.01
ACGGCAACGC	1.06
CGTGGTCCTA	0.899
GACCTGGGGA	1.02
TGCGAAGAAG	0.99

Sequence	switch fluorescence ratio
TGGCGGTTTC	1.14
TGCGCTCGAG	0.982
CACTATTACC	1.16
AAGCGGAGCT	0.958
CAACGGGTTG	1.02
GGATCAAAAC	0.97
TCCTGGGG	1.12
ATGATCATTT	1.02
GGAATTGACT	0.985
CTTTTAACT	0.995
AGGGCATACG	1.09
CGCACGCCTG	1.07
AGGGACTTAT	1.06
ATAGCATAGA	1.02
AGGCTCGGAG	1.01
ACTTAATTAC	1.1
CGGAAGAGAC	1.03
AGATTGAGTT	0.967
CAGGATTCAG	1.02
GGATACCAAG	1.01
TTCGTACCAG	0.98
CGGTTACGCG	0.997
AAATTTTTCC	1.08
TAGTAAAAAT	0.966
GCGGATAACT	1.04
GCGCATGGTG	1.05

Sequence	switch fluorescence ratio
AAGATTTGCG	0.962
CGCCTCCAGG	4.92
CAAATGACAG	0.967
CAAGGGATCT	0.993
GACGGGAGTC	0.967
TTGAGGGT	0.99
GATGCAGAG	1.04
TCGCAATCCG	1.95
AATGTATACA	1.04
CGAAACATTA	1.06
AGCTCCCGCA	1.59
GGAATAGCTA	1.02
AACATAGTAT	1.02
TACGGCCTAA	0.993
TCTGGGGACC	1.02
ACTACGGGGC	1.18
ATGTAATGTG	0.996
GGCACCAAGT	1.06
TCGAAATTT	1.16
GCCTATTCTC	0.993
TAGTAGAT	1.01
ACACACCGTG	1.11
GGTATTTTAT	0.999
CACGTCACA	1.66
GGAGCGGCCG	0.943
ACCTCTAGCG	1.1

Sequence	switch fluorescence ratio
TTGTCTGCCC	1
TTCCTTAGTT	0.969
TGGTTGCCGG	1.03
ATGCTGCGCT	1
GCCAGTAGTA	0.966
ATATGCGCGT	0.994
GTTTCCTCGG	1.19
ATTAACGCGG	1
CAAAGATGCT	1.4
AAATGACTTG	0.949
CAAAGTAGGT	1
TTTAATCTA	0.983
GAGAATCCG	1.01
GACAAGGCTG	1.03
TTGGCACGTA	0.984
GCTGTATGGT	0.98
ATGTCATAGT	1.03
CAGGCCTCTA	1.01
CAGTAAGGGG	0.983
CTAAATAAC	1.21
ATGACATTGT	0.975
CTCGGTACAA	1.13
TAGATAACG	0.99
ATATCGTGAC	1.02
TTACATCGAT	1.04
GGGATTTTCA	1.03

Sequence	switch fluorescence ratio
TAGAAGAAG	0.979
CCTGCAAAAT	2.31
CCACCAGACT	1.2
CCTGAGCGGT	2.09
TGAGAGCGTT	0.943
AGTGCGCTGT	1.03
GTTGAAGCT	0.899
GTTGACGGTT	0.986
GCGGTAGTAG	0.989
AAGTCGAATG	1.02
TGTATAGTTG	0.985
CTTCATAAGC	1.1
TGGGATAGCT	0.989
TGCCCAGGGA	1.29
CATGCGGGTT	1.04
TGTTTTGCAA	5.25
AATGGGAATA	0.986
TAGCCGTCGT	1.05
CTCTCGTCTG	1.06
CGTCTCATTC	1.08
CGAATACGGA	1.1
ATAACCTGAA	1.44
CACTCAAGGT	1.05
